# Assay results taken from the supplement of paper PMC3334620.
# In all, about 33,000 sequences were measured (“E-score (-0.5 to 0.5)”: median about -0.012, highest 2% from about 0.27 on). The list shows a part of the results.
# Molecular target: T1, Vhr1 (UniProt P40522)
# T1 sequence: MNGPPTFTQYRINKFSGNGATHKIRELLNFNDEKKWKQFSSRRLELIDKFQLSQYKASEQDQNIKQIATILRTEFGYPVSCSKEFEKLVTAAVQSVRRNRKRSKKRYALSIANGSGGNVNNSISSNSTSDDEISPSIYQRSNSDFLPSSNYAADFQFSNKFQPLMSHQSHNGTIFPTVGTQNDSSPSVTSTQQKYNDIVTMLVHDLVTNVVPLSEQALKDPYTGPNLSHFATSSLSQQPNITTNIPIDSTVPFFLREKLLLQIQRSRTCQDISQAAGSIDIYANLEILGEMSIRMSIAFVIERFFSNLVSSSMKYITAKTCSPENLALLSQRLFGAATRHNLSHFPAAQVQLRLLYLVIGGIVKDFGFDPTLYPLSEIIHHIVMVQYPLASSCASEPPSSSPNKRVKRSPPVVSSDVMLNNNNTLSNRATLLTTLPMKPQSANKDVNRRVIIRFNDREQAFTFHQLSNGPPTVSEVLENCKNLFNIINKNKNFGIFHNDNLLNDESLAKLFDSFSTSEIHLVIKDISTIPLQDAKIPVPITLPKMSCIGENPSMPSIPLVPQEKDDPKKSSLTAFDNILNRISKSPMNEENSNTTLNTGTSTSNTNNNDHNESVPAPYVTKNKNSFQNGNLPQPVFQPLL
# Experiment: PBM E-score (8-mer binding enrichment) (E-score (-0.5 to 0.5)); higher = stronger / more preferred TF binding; most listed sequences are background and not binding sites
# Details: protein concentration: 200 nM; construct: GST-full length
# In short: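 Using PURExpress in vitro transcription/translation, GST-tagged yeast transcription factors were made in full-length or DNA-binding-domain form. These were applied at about 100-200 nM to double-stranded universal all-10-mer Agilent arrays, and bound protein was detected with fluorescent anti-GST. Scans were normalised with masliner before the Universal PBM Analysis Suite assigned E-scores to ungapped eight-base words pooled with their reverse complements.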
row,Sequence,PBM E-score
1,CAGTTAAC,-0.0669
2,GCCCCCTA,-0.347
3,AGATCGAG,-0.178
4,CCTGCTTA,-0.00839
5,CTGCTGTA,-0.104
6,GAGATGTA,0.0797
7,GAAGAAGA,-0.115
8,AAACTGCT,-0.183
9,CGGGGTGC,0.0436
10,AAACTGTC,-0.196
11,ATCCCCTC,0.0736
12,CGTACGAA,-0.00421
13,CTTGTTAA,-0.179
14,AACTGCCT,0.0605
15,AAACTGAC,-0.0759
16,GATTTTCC,-0.186
17,TCGGTCCA,-0.0643
18,GTACTGTA,-0.151
19,ATGGCGAC,-0.0878
20,ACTAATAG,0.144
21,ACGAACTA,0.135
22,CTCTTCAA,-0.238
23,CTACGGTA,0.0486
24,AAGCTCCG,-0.173
25,AGCGAAGA,-0.163

row,Sequence,PBM E-score
1,AAACACAG,0.0633
2,CCCGTTAC,-0.11
3,TCGTCAAA,0.0166
4,ATGTTCTC,-0.0906
5,CTACTTTC,-0.213
6,AGCCGGGA,0.0226
7,ATGTCAGC,0.072
8,ACGGTTCT,-0.0909
9,CGCGGCGA,0.212
10,AACGGACG,0.0561
11,AGAGTGAT,0.0551
12,CTTTAACA,-0.345
13,GTTAATTA,0.0345
14,ATTCAAAA,-0.0713
15,TGATGCCA,-0.00527
16,CGGTTGTA,-0.0495
17,CGGCGAAC,-0.0382
18,CCGCATTA,0.0424
19,ATACCCTC,0.00336
20,ATCGAGTA,0.0544
21,AGTTATGA,0.0389
22,CTTTGTGC,-0.135
23,TCCACTCA,0.0869
24,GTGTGCGA,0.0262
25,CGGTCGAC,0.0782

row,Sequence,PBM E-score
1,GTTGAGGA,-0.0691
2,AAAATAAA,-0.0137
3,AAATATCA,0.0762
4,CCCGATAC,-0.126
5,GTGCCAAA,-0.169
6,AAGTTACC,-0.0533
7,CCGGCCCA,-0.176
8,CTACGAAC,-0.14
9,ATACAGAT,0.0906
10,ACTAGTCA,0.292
11,CTCGCATA,0.0425
12,AAGGGTTG,-0.00859
13,ATGGTCTA,0.0648
14,CCAATAGG,0.0241
15,CTATTAGA,-0.0674
16,GAAACGTC,-0.106
17,TCTGAACA,0.08
18,TATTGAGA,0.212
19,CCTTTAAG,-0.184
20,ACCGGCGG,0.0503
21,CTAGGTGC,-0.103
22,CGGCCGAC,0.00644
23,ACAGAGAA,0.0745
24,ACTGGCGG,0.0925
25,GTAAGTCA,0.251

row,Sequence,PBM E-score
1,CGACCGGA,0.0017
2,GTGGAAGA,-0.12
3,ACTTCCCA,-0.16
4,GCATCAAC,0.11
5,AAAATTTA,-0.245
6,CCTGTAAG,-0.201
7,CGAAAAAG,-0.0396
8,ACGCCCGA,-0.0585
9,ACCAAAAG,-0.177
10,AATGCAGC,-0.194
11,GGGGCATA,-0.221
12,CCGGATAG,-0.111
13,CCAGTAAA,-0.146
14,AGTATTCA,0.0385
15,TCATCCCA,0.171
16,GACTCTAA,0.243
17,ACCGAGTG,0.13
18,TCATAAGA,-0.0578
19,CGCGGTAC,0.0942
20,TACATCCA,0.0343
21,AGGCTGCG,0.0726
22,CCTGGGCC,-0.028
23,TAATTTCA,-0.0403
24,ACCAATGC,0.142
25,CCATCCGG,-0.00918

row,Sequence,PBM E-score
1,CGATATAA,-0.117
2,AGAATTGG,-0.0668
3,CCGGAAAA,-0.17
4,AATTTGGA,-0.28
5,CAAAGTAA,0.0679
6,ACTTCAAA,-0.232
7,ACCCTTCG,-0.0293
8,AACGATTC,0.0261
9,ACTTTCGG,-0.195
10,CAAGTCGG,-0.0435
11,GTAGGCAC,-0.144
12,CTACACAG,0.121
13,ACTTCCAA,-0.134
14,ATGCACAT,0.0847
15,ATTTGTCA,-0.0927
16,ATGTAAGA,0.0564
17,ACACGACG,-0.0012
18,AATCAAGT,0.174
19,AACTATGT,-0.0326
20,ACTAGAAT,0.0919
21,CCGGGGAG,0.0567
22,ACCAGGGA,-0.199
23,AGCATTTG,-0.202
24,AAAGAAGG,-0.247
25,GCGAAAGC,-0.0792

row,Sequence,PBM E-score
1,AGTACAGG,0.0326
2,ATAATGTC,0.0696
3,CCGTAACA,-0.105
4,CGGCTGGC,0.104
5,CACTCATA,0.179
6,CGATGCCA,-0.127
7,AATTGTTG,-0.132
8,GATAAAGA,-0.166
9,ACAGATTG,0.083
10,AAGGGCTC,-0.218
11,ACCACCTG,0.192
12,GCAGTCAC,0.353
13,CAAACCGC,0.017
14,ACGCGCAA,0.0839
15,ATGAGGCA,-0.27
16,GACGTTGC,0.0331
17,ATATGCGC,0.222
18,ATATCATA,0.216
19,AGGTACCC,-0.0665
20,CTTATAGC,-0.185
21,CATCCAAC,0.0877
22,GCAGTCGC,0.243
23,ATAGGGGA,-0.0258
24,GGCCGTGA,0.14
25,CGGCACCG,-0.0364

row,Sequence,PBM E-score
1,AATGCCGC,-0.0379
2,CACGACTC,0.378
3,GAACAACC,0.0146
4,CAATGCTC,-0.0728
5,ATTGTAAG,-0.0489
6,CAAACTTG,-0.0996
7,CATAGTAG,0.185
8,CTATGAGC,0.0885
9,AAGTCCCC,-0.297
10,AACCCGGG,0.0339
11,GAGGGTGA,0.153
12,TAGCTAGA,-0.119
13,AAGTACGG,0.0448
14,ATGACGAA,0.0557
15,CTACCAGC,0.0362
16,ACTCGGAC,0.226
17,CAGAGGGC,-0.146
18,ACTACAGG,0.12
19,AGTTTGAG,-0.0721
20,AGTATGAA,0.203
21,AGACTGCC,0.0225
22,CACCACCG,-0.0621
